Assay [1] has as its target T1, MCM3 (endogenous, human primary epidermal keratinocytes) (human (endogenous in primary epidermal keratinocytes)) (UniProt P25205).
T1 sequence: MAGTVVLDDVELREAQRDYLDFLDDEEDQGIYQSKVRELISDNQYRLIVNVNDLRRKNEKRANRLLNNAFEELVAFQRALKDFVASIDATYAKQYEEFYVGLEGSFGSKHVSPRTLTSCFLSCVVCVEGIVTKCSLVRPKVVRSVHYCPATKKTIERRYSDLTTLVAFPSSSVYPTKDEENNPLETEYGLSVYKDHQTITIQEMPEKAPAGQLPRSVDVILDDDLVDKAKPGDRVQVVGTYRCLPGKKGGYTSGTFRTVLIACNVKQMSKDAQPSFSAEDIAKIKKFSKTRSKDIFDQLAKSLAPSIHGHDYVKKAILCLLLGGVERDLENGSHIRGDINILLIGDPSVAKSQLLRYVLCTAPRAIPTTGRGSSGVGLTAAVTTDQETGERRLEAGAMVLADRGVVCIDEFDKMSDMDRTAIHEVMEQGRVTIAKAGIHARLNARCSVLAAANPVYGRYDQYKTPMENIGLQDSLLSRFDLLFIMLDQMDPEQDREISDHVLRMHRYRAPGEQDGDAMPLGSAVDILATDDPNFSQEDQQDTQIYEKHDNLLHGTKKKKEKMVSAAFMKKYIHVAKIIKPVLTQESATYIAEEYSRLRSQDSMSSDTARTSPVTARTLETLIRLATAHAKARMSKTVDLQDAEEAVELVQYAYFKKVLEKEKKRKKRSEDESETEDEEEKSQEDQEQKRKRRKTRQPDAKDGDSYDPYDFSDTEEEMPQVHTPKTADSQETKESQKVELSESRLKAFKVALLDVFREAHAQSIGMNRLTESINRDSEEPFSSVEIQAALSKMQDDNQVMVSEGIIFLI
Briefly: proximity ligation; Duolink PLA on fixed human primary epidermal keratinocytes, goat anti-MCM3 and mouse anti-Keap1, endogenous proteins.

The chains behind the UniProt entries cited, without tags or fusion partners. Where a name states a change or a piece, a line headed by the entry shows the natural chain unless it says otherwise.
UniProt Q9Z2X8: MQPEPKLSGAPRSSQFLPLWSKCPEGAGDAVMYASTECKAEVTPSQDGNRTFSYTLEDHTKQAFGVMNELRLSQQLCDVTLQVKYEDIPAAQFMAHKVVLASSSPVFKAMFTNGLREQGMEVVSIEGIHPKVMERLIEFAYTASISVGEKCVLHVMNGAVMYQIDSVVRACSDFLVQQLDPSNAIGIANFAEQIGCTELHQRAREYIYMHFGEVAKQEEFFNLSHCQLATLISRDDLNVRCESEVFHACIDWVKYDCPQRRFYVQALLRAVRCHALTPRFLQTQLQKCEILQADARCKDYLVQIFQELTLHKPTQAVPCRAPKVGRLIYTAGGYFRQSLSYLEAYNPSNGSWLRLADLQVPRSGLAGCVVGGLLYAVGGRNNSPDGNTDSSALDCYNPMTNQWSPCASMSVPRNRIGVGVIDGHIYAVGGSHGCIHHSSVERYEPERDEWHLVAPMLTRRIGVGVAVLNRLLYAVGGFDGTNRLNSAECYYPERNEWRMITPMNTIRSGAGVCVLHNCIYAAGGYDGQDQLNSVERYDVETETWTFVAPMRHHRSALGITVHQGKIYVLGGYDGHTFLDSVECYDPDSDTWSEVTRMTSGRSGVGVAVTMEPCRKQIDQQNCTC
UniProt Q14145: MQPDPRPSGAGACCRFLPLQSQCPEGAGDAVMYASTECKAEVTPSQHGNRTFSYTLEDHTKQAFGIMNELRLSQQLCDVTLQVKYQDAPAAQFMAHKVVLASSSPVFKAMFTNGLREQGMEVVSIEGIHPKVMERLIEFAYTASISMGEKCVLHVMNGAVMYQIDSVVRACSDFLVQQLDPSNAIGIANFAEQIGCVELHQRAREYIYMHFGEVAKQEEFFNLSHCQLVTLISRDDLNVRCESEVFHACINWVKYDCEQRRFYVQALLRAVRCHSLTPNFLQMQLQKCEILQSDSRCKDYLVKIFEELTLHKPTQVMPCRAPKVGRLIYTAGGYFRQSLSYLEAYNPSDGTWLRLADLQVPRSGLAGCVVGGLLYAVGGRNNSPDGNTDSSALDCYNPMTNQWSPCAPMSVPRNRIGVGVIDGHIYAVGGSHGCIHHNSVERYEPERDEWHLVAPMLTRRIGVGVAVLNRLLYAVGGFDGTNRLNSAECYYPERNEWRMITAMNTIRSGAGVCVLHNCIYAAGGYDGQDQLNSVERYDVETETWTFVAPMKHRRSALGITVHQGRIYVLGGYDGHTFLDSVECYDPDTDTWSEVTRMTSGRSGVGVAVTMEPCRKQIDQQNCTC
UniProt P97310: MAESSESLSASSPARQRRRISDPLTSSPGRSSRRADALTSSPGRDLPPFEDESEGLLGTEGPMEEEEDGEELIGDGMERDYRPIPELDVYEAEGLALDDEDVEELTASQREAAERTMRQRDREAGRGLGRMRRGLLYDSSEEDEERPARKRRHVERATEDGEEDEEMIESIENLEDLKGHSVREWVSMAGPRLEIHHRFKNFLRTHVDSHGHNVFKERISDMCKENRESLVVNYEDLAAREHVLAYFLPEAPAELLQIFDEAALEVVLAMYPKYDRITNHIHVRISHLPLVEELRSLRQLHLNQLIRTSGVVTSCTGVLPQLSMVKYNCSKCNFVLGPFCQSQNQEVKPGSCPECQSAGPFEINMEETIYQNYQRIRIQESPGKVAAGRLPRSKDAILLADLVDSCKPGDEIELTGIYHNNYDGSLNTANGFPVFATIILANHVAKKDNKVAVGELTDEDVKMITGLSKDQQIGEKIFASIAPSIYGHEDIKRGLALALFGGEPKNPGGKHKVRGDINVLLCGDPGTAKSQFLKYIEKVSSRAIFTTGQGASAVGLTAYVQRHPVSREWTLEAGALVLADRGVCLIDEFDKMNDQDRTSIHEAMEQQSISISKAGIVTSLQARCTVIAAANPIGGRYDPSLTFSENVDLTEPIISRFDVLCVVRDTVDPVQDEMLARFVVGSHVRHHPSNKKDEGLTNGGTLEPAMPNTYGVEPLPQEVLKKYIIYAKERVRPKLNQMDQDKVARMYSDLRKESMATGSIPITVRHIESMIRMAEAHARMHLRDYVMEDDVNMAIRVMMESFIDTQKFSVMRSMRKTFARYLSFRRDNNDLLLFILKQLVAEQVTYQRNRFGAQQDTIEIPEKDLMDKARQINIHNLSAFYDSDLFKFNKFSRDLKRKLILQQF

Assay [2] has as its target T2, FLAG-MCM3 (mouse, wild type, baculovirus) (mouse) (UniProt P25206).
T2 sequence: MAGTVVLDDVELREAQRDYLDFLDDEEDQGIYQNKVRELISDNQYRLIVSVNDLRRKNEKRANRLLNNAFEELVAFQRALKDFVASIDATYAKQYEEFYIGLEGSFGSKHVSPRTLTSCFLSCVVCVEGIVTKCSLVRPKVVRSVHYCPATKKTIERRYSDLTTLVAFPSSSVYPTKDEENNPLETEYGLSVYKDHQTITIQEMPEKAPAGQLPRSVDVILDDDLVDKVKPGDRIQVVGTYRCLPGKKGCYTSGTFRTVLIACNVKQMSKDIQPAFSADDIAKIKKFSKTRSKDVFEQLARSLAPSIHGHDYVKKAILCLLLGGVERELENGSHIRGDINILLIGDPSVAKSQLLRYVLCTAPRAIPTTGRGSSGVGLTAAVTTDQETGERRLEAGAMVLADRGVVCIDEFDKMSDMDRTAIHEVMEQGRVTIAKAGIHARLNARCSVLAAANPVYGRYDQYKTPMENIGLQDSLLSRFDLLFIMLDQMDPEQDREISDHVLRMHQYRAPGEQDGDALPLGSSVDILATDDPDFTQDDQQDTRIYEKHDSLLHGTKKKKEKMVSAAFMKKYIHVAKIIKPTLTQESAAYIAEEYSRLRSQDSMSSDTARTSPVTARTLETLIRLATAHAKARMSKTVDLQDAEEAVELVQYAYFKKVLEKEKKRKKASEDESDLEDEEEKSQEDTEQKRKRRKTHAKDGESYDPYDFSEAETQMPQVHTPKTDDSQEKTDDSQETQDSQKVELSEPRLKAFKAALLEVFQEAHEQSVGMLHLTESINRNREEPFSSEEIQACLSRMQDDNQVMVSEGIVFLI
Briefly: SEC; MCM2-7 from baculovirus co-expression in Sf9 cells, size exclusion chromatography profile (Supplementary Fig. S7); details not shown. Background: SEC sorts molecules by how far they enter the pores of the column.

Assay [3] has as its target strep-Keap1 (mouse, wild type, baculovirus) (mouse) (UniProt Q9Z2X8). The assay is described as follows: pull-down; Strep-Tactin beads (strep-Keap1 as bait) on extracts of baculovirus co-infected Sf9 cells, 1 hr at 4 °C, washes with 250 mM KCl buffer pH 7.8, Western blot.
Assay [4] has as its target strep-Keap1 mutant R380A/R415A (mouse, baculovirus) (mouse) (UniProt Q9Z2X8). The description is as above.
For assay [5], the target named is strep-Keap1 (mouse, wild type, baculovirus) (mouse) (UniProt Q9Z2X8). Briefly: pull-down; tandem affinity (FLAG-MCM3 then strep-Keap1, and strep-Keap1 then FLAG-MCM3) from Sf9 cells expressing Keap1 and all six MCM2-7 subunits, 100 mM KCl buffer, Coomassie stained gels.
For assay [6] the target is unchanged. The assay is described as follows: pull-down; tandem affinity (strep-Keap1 then FLAG-MCM3) from Sf9 cells expressing all six MCM2-7 subunits, Keap1 and MCM-BP, 100 mM KCl buffer, Coomassie stained gel, bands verified by mass spectrometry.

These are yes or no findings as the source states them, for the method shown. For part of these data: Binding seen in cells or lysates may run through a third protein. Some binding calls cover weakened binding; strength is not graded here. For part of these data: Sequences can lack the tags named with a protein.

For “Keap1 (endogenous, human primary epidermal keratinocytes) (from UniProt Q14145 1-624)”, in assay [1], the binding result was “binds”.
Take “MCM2 (mouse, baculovirus) (from UniProt P97310 1-904)”: the binding result in assay [2] was “binds”.

B1: MCM5 (mouse, baculovirus) (protein, UniProt P49718 1-734)
chain: MSGFDDPGIFYSDSFGGDPGAEEGQARKSQLQRRFKEFLRQYRVGTDRTGFTFKYRDELKRHYNLGEYWIEVEMEDLASFDEELADHLHKQPAEHLQLLEEAAKEVADEVTRPRPAGDELLQDIQVMLKSDASPSSIRILKSDMMSHLVKIPGIIISASAVRAKATRISIQCRSCHNTLTNIAMRPGLEGYALPRKCNMDQAGRPKCPLDPYFIMPDKCKCVDFQTLKLQELPDAVPHGEMPRHMQLYCDRYLCDKVVPGNRVTIMGIYSIKKFGLNPSKGRDRVGVGIRSSYIRVLGIQVDTDGSGRSFAGSVSPQEEEEFRRLAALPNIYELISKSISPSIFGGMDMKKAIACLLFGGSRKRLPDGLTRRGDINLLMLGDPGTAKSQLLKFVEKCSPIGVYTSGKGSSAAGLTASVIRDPSSRNFIMEGGAMVLADGGVVCIDEFDKMREDDRVAIHEAMEQQTISIAKAGITTTLNSRCSVLAAANSVFGRWDETKGEDNIDFMPTILSRFDMIFIVKDEHNEERDMMLAKHVMTLHVSALTQTQAVEGEIDLAKMKKFIAYCRARCGPRLSAEAAEKLKNRYIIMRSGARQHERDSDRRSSIPITVRQLEAIVRIAEALSKMKLQPFATEADVEEALRLFQVSTLDAALSGNLSGVEGFTTQEDQEMLSRIEKQLKRRFAIGSQVSEHSIVQDFTKQKYPEHAIRKVLQLMLRRGEIQHRMQRKVLYRLK
Turning to B1, the binding entry in assay [2] is given as “binds”.

B2: FLAG-MCM3 (mouse, wild type, baculovirus) (natural protein, UniProt P25206 1-812, looked up)
chain: MAGTVVLDDVELREAQRDYLDFLDDEEDQGIYQNKVRELISDNQYRLIVSVNDLRRKNEKRANRLLNNAFEELVAFQRALKDFVASIDATYAKQYEEFYIGLEGSFGSKHVSPRTLTSCFLSCVVCVEGIVTKCSLVRPKVVRSVHYCPATKKTIERRYSDLTTLVAFPSSSVYPTKDEENNPLETEYGLSVYKDHQTITIQEMPEKAPAGQLPRSVDVILDDDLVDKVKPGDRIQVVGTYRCLPGKKGCYTSGTFRTVLIACNVKQMSKDIQPAFSADDIAKIKKFSKTRSKDVFEQLARSLAPSIHGHDYVKKAILCLLLGGVERELENGSHIRGDINILLIGDPSVAKSQLLRYVLCTAPRAIPTTGRGSSGVGLTAAVTTDQETGERRLEAGAMVLADRGVVCIDEFDKMSDMDRTAIHEVMEQGRVTIAKAGIHARLNARCSVLAAANPVYGRYDQYKTPMENIGLQDSLLSRFDLLFIMLDQMDPEQDREISDHVLRMHQYRAPGEQDGDALPLGSSVDILATDDPDFTQDDQQDTRIYEKHDSLLHGTKKKKEKMVSAAFMKKYIHVAKIIKPTLTQESAAYIAEEYSRLRSQDSMSSDTARTSPVTARTLETLIRLATAHAKARMSKTVDLQDAEEAVELVQYAYFKKVLEKEKKRKKASEDESDLEDEEEKSQEDTEQKRKRRKTHAKDGESYDPYDFSEAETQMPQVHTPKTDDSQEKTDDSQETQDSQKVELSEPRLKAFKAALLEVFQEAHEQSVGMLHLTESINRNREEPFSSEEIQACLSRMQDDNQVMVSEGIVFLI
notes: MCM3, mouse; cDNA cloned into pFastBac1; also called WT MCM3; source: Sf9, baculovirus infected, in extract; not shown: FLAG, N-terminal, kept
As to B2, the binding entry in assay [3] is given as “binds”; in assay [4], “no binding”; in assay [5] it was “binds”; in assay [6] it was “binds”.

B3: MCM6 (mouse, baculovirus) (protein, UniProt P97311 1-821)
chain: MDLAAAAEPGAGSQHPEVRDEVAEKCQKLFLDFLEEFQGSDGEIKYLQFAEELIRPERNTLVVSFADLEQFNQQLSTTIQEEFYRVYPYLCRALKTFVKDRKEIPFAKDFYVAFQDLPTRHKIRELTSSRIGLLTRISGQVVRTHPVHPELVSGTFLCLDCQTVIKDVEQQFKYTQPNICRNPVCANRKRFLLDTNKSRFVDFQKVRIQETQAELPRGSIPRSLEVILRAEAVESAQAGDRCDFTGALIVVPDVSKLSTPGARAETNSRVSGADGYETEGIRGLRALGVRDLSYRLVFLACHVAPTNPRFGGKELRDEEQTAESIKNQMTVKEWEKVFEMSQDKNLYHNLCTSLFPTIHGNDEVKRGVLLMLFGGVPKTTGEGTSLRGDINVCIVGDPSTAKSQFLKHVDEFSPRAVYTSGKASSAAGLTAAVVRDEESHEFVIEAGALMLADNGVCCIDEFDKMDMRDQVAIHEAMEQQTISITKAGVKATLNARTSILAAANPVSGHYDRSKSLKQNINLSAPIMSRFDLFFILVDECNEVTDYAIARRIVDLHSRIEESIDRVYSLDDIRRYLLFARQFKPKISKESEDFIVEQYKRLRQRDGSGVTKSSWRITVRQLESMIRLSESMARMHCCDEVQPKHVKEAFRLLNKSIIRVETPDVNLDQEEEIQMETDEGQGGVNGHADSPAPVNRFNGSSEDASQETVSKPSLRLGFAEYCRISNLIVLHLRKMEEEEDESALKRSELVNWYLKEIESEIDSEEELINKKTIIEKVVHRLTHYDHVLIELTQAGLKGSSEGSESYEEDPYLVVNPNYLLED
For B3, the binding entry in assay [2] is “binds”.

B4: MCM4 (mouse, baculovirus) (protein, UniProt P49717 1-862)
chain: MSSPASTPSRRSSRRGRVTPTQSLRSEESRSSPNRRRRGEDSSTGELLPMPTSPGADLQSPPAQNALFSSPPQMHSLAIPLDFDVSSPLTYGTPSSRVEGTPRSGVRGTPVRQRPDLGSARKGLQVDLQSDGAAAEDIVPSEQSLGQKLVIWGTDVNVATCKENFQRFLQCFTDPLAKEEENVGIDITQPLYMQQLGEINITGEPFLNVNCEHIKSFSKNLYRQLISYPQEVIPTFDMAVNEIFFDRYPDSILEHQIQVRPFNALKTKSMRNLNPEDIDQLITISGMVIRTSQLIPEMQEAFFQCQVCAHTTRVEIDRGRIAEPCSCVHCHTTHSMALIHNRSFFSDKQMIKLQESPEDMPAGQTPHTIVLFAHNDLVDKVQPGDRVNVTGIYRAVPIRVNPRVSNVKSVYKTHIDVIHYRKTDAKRLHGLDEEAEQKLFSEKRVKLLKELSRKPDIYERLASALAPSIYEHEDIKKGILLQLFGGTRKDFSHTGRGKFRAEINILLCGDPGTSKSQLLQYVYNLVPRGQYTSGKGSSAVGLTAYVMKDPETRQLVLQTGALVLSDNGICCIDEFDKMNESTRSVLHEVMEQQTLSIAKAGIICQLNARTSVLAAANPIESQWNPKKTTIENIQLPHTLLSRFDLIFLMLDPQDEAYDRRLAHHLVSLYYQSEEQVEEEFLDMAVLKDYIAYAHSTIMPRLSEEASQALIEAYVNMRKIGSSRGMVSAYPRQLESLIRLAEAHAKVRFSNKVEAIDVEEAKRLHREALKQSATDPRTGIVDISILTTGMSATSRKRKEELAEALRKLILSKGKTPALKYQQLFEDIRGQSDTAITKDMFEEALRALADDDFLTVTGKTVRLL
Consider B4, for which the binding entry in assay [2] is “binds”.

(Values after PMC6092318, “Keap1–MCM3 interaction is a potential coordinator of molecular machineries of antioxidant response and genomic DNA replication in metazoa” (Scientific Reports, 2018).)
